Measurements reported in the antibiotic and cytotoxicity screens of Wong et al. (2023).
This is one part of the list.

test system: HepG2; assay: cytotoxicity call (relative viability < 0.9); details: 10 µM

SMILES	cytotoxicity call
C[C@@H]1CN([C@@H](C)CO)C(=O)c2cc(C#Cc3ccc(F)cc3)cnc2O[C@H]1CN(C)Cc1ccccn1	inactive
COc1ccc(S(=O)(=O)Nc2ccc3c(c2)C(=O)N([C@H](C)CO)C[C@H](C)[C@H](CN(C)Cc2ccc(C(F)(F)F)cc2)OCCCC[C@@H](C)O3)cc1	active
CCn1cc(C(=O)O)c(=O)c2cnc(N3CCNCC3)nc21	inactive
CN(C)C(=O)C[C@H]1C=C[C@H](NC(=O)C2CCOCC2)[C@H](CO)O1	inactive
COc1ccc(C#Cc2ccc3c(c2)O[C@@H](CN(C)C(=O)CN2CCOCC2)[C@@H](C)CN([C@@H](C)CO)S3(=O)=O)cc1	inactive
COc1ccc(cc1)CN1C[C@]2(CN(C2)C(=O)C2CCOCC2)c2c(n(c3cc(ccc23)OC)C)[C@@H]1CO	inactive
C[C@H](CO)N1C[C@H](C)[C@@H](CN(C)Cc2ccc(C(F)(F)F)cc2)Oc2ccc(NC(=O)Nc3ccc4c(c3)OCO4)cc2C1=O	inactive
CC(C)NC(=O)Nc1ccc2c(c1)C(=O)N([C@H](C)CO)C[C@@H](C)[C@H](CN(C)C(=O)Nc1ccccc1)OCCCC[C@@H](C)O2	inactive
Cc1cc(C(=O)Nc2cccc3c2O[C@H](CN(C)S(=O)(=O)c2cn(C)cn2)[C@@H](C)CN([C@H](C)CO)C3=O)n(C)n1	inactive
CC(=O)O[C@@H]1[C@@H](OC(C)=O)[C@@H]2OC[C@@H](O2)[C@H]1OC(C)=O	inactive
COc1ccc(NC(=O)Nc2ccc3c(c2)C(=O)N([C@H](C)CO)C[C@H](C)[C@H](CN(C)Cc2ccc4c(c2)OCO4)OCCCC[C@@H](C)O3)cc1	inactive
Cc1noc(C)c1NC(=O)N(C)C[C@@H]1OCCCC[C@@H](C)Oc2ccc(NS(=O)(=O)c3ccc(F)cc3)cc2C(=O)N([C@H](C)CO)C[C@H]1C	inactive
O=C(Nc1ccc2c(c1)[C@@H]1C[C@@H](CC(=O)N3CCc4ccccc4C3)O[C@H](CO)[C@@H]1O2)C1CCOCC1	inactive
C[C@@H]1CN([C@H](C)CO)C(=O)c2cc(NS(C)(=O)=O)ccc2O[C@H]1CN(C)S(=O)(=O)c1cccs1	inactive
Cc1ccc(S(=O)(=O)N[C@@H]2CC[C@@H](CCNC(=O)CN3CCOCC3)O[C@H]2CO)cc1	inactive
Cc1ccc(S(=O)(=O)N(C)C[C@@H]2OCCCC[C@@H](C)Oc3ccc(NC(=O)Nc4ccc(C(F)(F)F)cc4)cc3C(=O)N([C@@H](C)CO)C[C@H]2C)cc1	active
OCC1OC(OC2C(CO)OC(O)C(O)C2O)C(O)C(O)C1O (stereo not given)	inactive
C[C@@H]1CN([C@H](C)CO)C(=O)c2cc(NC(=O)Nc3ccc(C(F)(F)F)cc3)ccc2O[C@@H](C)CCCCO[C@@H]1CN(C)S(=O)(=O)c1cccs1	inactive
COCC(=O)Nc1ccccc1C(=O)O	inactive
Cc1noc(C)c1NC(=O)Nc1cccc2c1O[C@@H](CN(C)C(=O)Nc1cccc3ccccc13)[C@@H](C)CN([C@@H](C)CO)C2=O	inactive

SMILES	cytotoxicity call
COc1ccc(CN(C)C[C@@H]2Oc3ccc(NS(C)(=O)=O)cc3C(=O)N([C@H](C)CO)C[C@H]2C)cc1	inactive
CCS(=O)(=O)NCC[C@@H]1CC[C@@H](NC(=O)C2CCOCC2)[C@@H](CO)O1	inactive
O=C1Nc2ccccc2O[C@@H]1CCO	inactive
O=C(NCC(F)(F)F)[C@@H]1c2ccccc2C(=O)N(CC23CC4CC(CC(C4)C2)C3)[C@H]1c1ccc(CO)cc1	inactive
CC(=O)O[C@@H]1[C@@H](O[C@@H]2O[C@H](CO)[C@@H](O)[C@H](O)[C@H]2O)[C@@H](O)[C@H](OC[C@H]2O[C@@H](Oc3c(-c4ccc(O)c(O)c4)oc4cc(O)cc(O)c4c3=O)[C@H](O)[C@@H](O)[C@H]2O)O[C@H]1C	active
Cc1cc2c(o1)CC(C)(C)CC2=O	inactive
C[C@H]1COc2c(C3(N)CC3)c(F)cc3c(=O)c(C(=O)O)cn1c23	inactive
C[C@@H]1CCCCO[C@H](CN(C)C(=O)NC2CCCCC2)[C@H](C)CN([C@@H](C)CO)C(=O)c2cc(NC(=O)c3ccccc3)ccc2O1	inactive
C[C@H](CO)N1C[C@H](C)[C@H](CN(C)C(=O)Nc2ccc(F)cc2)Oc2c(NC(=O)c3ccc(-c4nccs4)cc3)cccc2C1=O	inactive
C[C@@H]1CCCCO[C@@H](CN(C)S(=O)(=O)c2ccc(Cl)cc2)[C@H](C)CN([C@H](C)CO)C(=O)c2cc(NC(=O)Nc3ccc(C(F)(F)F)cc3)ccc2O1	inactive
COc1ccccc1-c1ccc2c(c1)O[C@@H](CN(C)S(=O)(=O)c1ccccc1)[C@@H](C)CN([C@H](C)CO)S2(=O)=O	inactive
COc1ccc(CN(C)C[C@@H]2OCCCC[C@@H](C)Oc3ccc(NC(=O)Nc4c(C)noc4C)cc3C(=O)N([C@H](C)CO)C[C@@H]2C)cc1	inactive
Cc1cc(C(=O)Nc2cccc3c2O[C@@H](CN(C)S(=O)(=O)c2ccc(Cl)cc2)[C@@H](C)CN([C@@H](C)CO)C3=O)n(C)n1	inactive
C[C@@H]1CCCCO[C@@H](CN(C)CC2CCCCC2)[C@H](C)CN([C@@H](C)CO)C(=O)c2cc(N(C)C)ccc2O1	inactive
COCC(=O)N1C[C@H](C)[C@H](OC)CN(C)C(=O)c2ccc(NC(=O)Nc3cccc(F)c3)cc2OC[C@@H]1C	inactive
COc1ccc(S(=O)(=O)Nc2ccc3c(c2)C(=O)N([C@H](C)CO)C[C@@H](C)[C@@H](CN(C)S(=O)(=O)c2c(C)noc2C)O3)cc1	inactive
C[C@H](CO)N1C[C@H](C)[C@H](CN(C)Cc2cncnc2)Oc2ncc(C#C[C@@H](C)O)cc2C1=O	inactive
C[C@@H]1CN([C@@H](C)CO)C(=O)c2cc(NC(=O)Nc3ccccc3)ccc2O[C@@H](C)CCCCO[C@H]1CN(C)C(=O)Nc1ccc(C(F)(F)F)cc1	inactive
O=C(CCCCCCC(=O)Nc1ccc([C@@H]2O[C@H](CSc3nc(-c4ccccc4)c(-c4ccccc4)o3)C[C@H](c3ccccc3)O2)cc1)NO	inactive
C[C@H](CO)N1C[C@H](C)[C@H](CN(C)C(=O)Nc2cccc3ccccc23)Oc2ccc(NC(=O)NC3CCCCC3)cc2C1=O	inactive
